Test results from publication PMC12040169 (PLOS Biology, 2025).
This is one part of the list.

system: T1, C. trachomatis L2/434/Bu expressing GFP (CTL2-GFP); design: species or system HeLa; C. trachomatis total inclusion area by high-content imaging, normalised to DMSO; conditions: total inclusion area; 28.5 h, 10 µM; inhibitor
T1 construct: L2/434/Bu GFP intracellular growth in HeLa cells
Procedure, shortened: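 Following bulk GFP and resorufin fluorescence reads, infected cells were fixed, Hoechst-stained and imaged on a high-content platform. Inclusion total area and number per well served as growth proxies; nuclei counts indicated host viability. MICs were derived as for the fluorescence assay.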

Structure (SMILES) | % of control remaining
COc1ccc(-c2c(C(F)(F)F)oc3cc(OC(=O)c4cccc(C)c4)ccc3c2=O)cc1OC [CBK263907] | 101.097
CN1CCN(C(=O)c2[nH]c3ccccc3c2NS(=O)(=O)Cc2ccccc2[N+](=O)[O-])CC1 [CBK050059] | 85.7301
COc1cc(Nc2nc(-c3ccccc3F)cn3ccnc23)cc(OC)c1OC [CBK037301] | 87.7237
COc1ccc(CNC(=O)Cn2nnc(-c3ccc(NC(=O)C4CCCCC4)cc3)n2)cc1 [CBK135876] | 85.9653
OCCN1CCN(c2nccnc2-c2cccs2)CC1 [CBK088811] | 89.5176
OC[C@H]1OCC[C@H]1O [CBK201263] | 85.7333
Cc1c(Cl)cccc1S(=O)(=O)Nc1ccsc1C(=O)O [CBK004549] | 100.085
COc1ccc([C@H](O)[C@@H]2CCCN(C(=O)OC(C)(C)C)C2)cc1 [CBK284311] | 81.7532
CS(=O)(=O)N[C@H]1C[C@H]2C(=O)Nc3cc(Cl)ccc3C(=O)N2C1 [CBK289363] | 101.883
CN(C)CCNC(=O)c1ccc2[nH]ccc2c1 [CBK149062] | 89.8032
Nc1ncc(-c2ccoc2)nc1-c1ccc(F)c(Cl)c1 [CBK063982] | 130.186
COCc1cccc(-c2nccnc2OCC(=O)OC)c1 [CBK106976] | 91.3652
Cc1cccc(C(=O)N2CCCC(C)C2)c1 (stereo not shown) [CBK074057] | 82.7936
CC(NC(=O)N(Cc1ccccc1C(F)(F)F)CC(C)(C)CN)c1cccc2ccccc12 (stereo not shown) [CBK002422C] | 44.7798
COc1ccccc1CNC(=O)c1cc(-c2ccccc2)nc2ccccc12 [CBK294458] | 109.658
CN(C)CCCN(Cc1cnn(C)c1)Cc1ccco1 [CBK283039] | 88.7432
C[C@H](NC(=O)C1CC(=O)N(c2ccc(F)cc2)C1)C(=O)N1CCC(C(=O)O)CC1 (stereo partly shown) [CBK286733] | 79.5258
CS(=O)(=O)Nc1nccnc1OC1CCN(CCCC#N)CC1 [CBK084276] | 91.2465
Oc1ccc(/C=N/N(Cc2ccccc2)Cc2ccccc2)cc1 [CBK261414] | 77.879
Cc1ccc(N(CC(=O)Nc2cccc3cccnc23)S(=O)(=O)c2ccc(C)cc2)cc1 [CBK262201] | 85.5426
CN(C)S(=O)(=O)c1cccc(C(=O)NCCc2ccccc2)c1 [CBK267793] | 120.1

Structure (SMILES) | % of control remaining
Cc1cc2cc(CN(CC3CCCO3)C(=O)C3CC3)c(Cl)nc2cc1C (stereo not shown) [CBK109881] | 62.9902
CCN1CC(C(=O)N2CCCC(CN(C)C)C2)CC1=O (stereo not shown) [CBK282064] | 78.7918
O=C(CN1CCCC1=O)NC1(C(F)(F)F)NC(=O)N(c2ccc(F)cc2)C1=O (stereo not shown) [CBK268057] | 103.956
CC(CC(=O)O)CC(=O)N1CCCC1c1nc(-c2ccc(F)cc2)c2ccccn12 (stereo not shown) [CBK046626] | 118.675
Cn1c(SCC(=O)Nc2ccccc2[N+](=O)[O-])nc2ccccc2c1=O [CBK265096] | 91.3492
CC(C)Oc1ccc(C(=O)N2CC(C)C(N3CCOCC3)C2)cn1 (stereo not shown) [CBK304497] | 68.1412
O=C1CC(N2CCN(Cc3ccc4c(c3)OCO4)CC2)C(=O)N1c1cc(Cl)cc(Cl)c1 (stereo not shown) [CBK074554] | 94.8419
Nc1ncc(-c2ccc3c(c2)OCO3)nc1Nc1ccc2[nH]ccc2c1 [CBK063667] | 95.8109
OC(COc1cccc2c1CCCC2)CN1CCC(O)(c2ccc(Br)cc2)CC1 (stereo not shown) [CBK003584] | 89.385
CCn1ncc(CN(C)C(=O)CCC2CCCCN2C)c1C (stereo not shown) [CBK307329] | 63.3802
O=C(Cc1nc(-c2ccncc2)n[nH]1)NC1CCCCC1 [CBK288544] | 91.7579
O=C(O)C/N=C1/CCCc2ccccc2N1 [CBK261809] | 91.8173
Cc1ccccc1NC(=O)COc1ccc(S(=O)(=O)N2CCCC2)cc1Cl [CBK268938] | 102.982
O=C(Nc1ccc2cccc(O)c2n1)c1cc[nH]c1 [CBK122743] | 84.5934
CC(C)(O)c1cc(CC2(NCc3ccco3)COC2)no1 [CBK289255] | 110.061
O=C(c1ccncc1)N1CCCn2nc(-c3cccnc3)cc2C1 [CBK288607] | 104.616
O=S(=O)(Nc1ccc2nsnc2c1)c1ccc(Br)cc1C(F)(F)F [CBK062233] | 111.148
OC(CSc1ncnc2sc3c(c12)CCC3)Cn1cccn1 (stereo not shown) [CBK304149] | 43.7924
CC(=O)NC1(c2ccccc2F)CCN(c2ncc(-c3ccco3)c(-c3ccco3)n2)CC1 [CBK286428] | 97.7161
CC(C)c1ccc(S(=O)(=O)NCCC2CCN(Cc3ccccc3)CC2)cc1 [CBK043456] | 57.6525
Cc1nn(C)cc1CN1CCN(C(=S)NCCc2ccccc2)CC1 [CBK267069] | 90.861

Structure (SMILES) | % of control remaining
Cn1nccc1C1CCN(Cc2ccc(Oc3cnccn3)cc2)CC1 [CBK306400] | 79.8855
S=c1[nH]nc2sc3ccccc3n12 [CBK018156] | 100.194
CN(CC1(C)COC1)C(=O)Cc1cccc2cccnc12 [CBK281963] | 85.5085
O=C(Nc1cnn(C23CC4CC(CC(C4)C2)C3)c1)c1cnn2c(C(F)(F)F)cc(-c3ccco3)nc12 [CBK268538] | 51.0274
Cc1cc(C)nc(N2CCN(CCC(=O)O)CC2)n1 [CBK287272] | 101.055
Cc1nn2c(c1-c1ccno1)CCCCC2 [CBK007505] | 83.3032
O=C(Cn1ncc2cccn2c1=O)NCc1ccc(F)cc1 [CBK283851] | 87.6095
CCSC1=C(C#N)C(=O)NC(c2ccccc2O)S1 (stereo not shown) [CBK293971] | 82.6665
O=C(O)CCC(NC(=O)c1ccc(-c2ccc(F)cc2)s1)C(=O)O (stereo not shown) [CBK295172] | 106.182
O=C(COc1ccc(S(=O)(=O)N2CCCCC2)cc1Cl)Nc1ccc2c(c1)OCCO2 [CBK269540] | 105.77
CC1CCCN(Cc2nc3c(c(=O)n(C)c(=O)n3C)n2CC(N)=O)C1 (stereo not shown) [CBK306064] | 73.2363
CCCCc1c(O)c2ccccc2n(Cc2ccccc2)c1=O [CBK219416] | 104.193
CNS(=O)(=O)c1ccc2c3c(cccc13)C(=O)N2 [CBK287275] | 110.868
CCOc1ccc(-c2cc(C(=O)Nc3cccc(C(=O)O)c3)no2)cc1 [CBK299776] | 81.2106
Cc1ccc(NC(=O)CCN2C(=O)c3cccc([N+](=O)[O-])c3C2=O)c(Br)c1 [CBK263172] | 102.712
C=CCNc1nccnc1-c1cccc(O)c1 [CBK088505] | 101.785
O=C(CSc1ccc(Br)cc1)NCc1ccco1 [CBK269701] | 88.8995
CN(C)c1ccc(-n2ncc(-c3ccsc3)n2)cc1 [CBK112845] | 108.953
Cc1ccc(CNC(=O)CSc2nc(N)n[nH]2)cc1 [CBK267914] | 107.278
NC(=O)c1cccc(-c2nccnc2NCCO)c1 [CBK088993] | 115.53
COc1cccc(CNc2ccc(-c3nc4ncccc4o3)cc2)c1OC [CBK269716] | 94.8945

Structure (SMILES) | % of control remaining
c1ccc(-c2nc3ccccc3nc2N2CCNCC2)cc1 [CBK269574C] | 102.242
Cc1ccc2c(c1)N(CCO)C(C)(C)CC2C (stereo not shown) [CBK006567] | 30.2253
CS(=O)(=O)N1CCN(c2ccc(NC(=O)CSc3nc(-c4ccccc4)cs3)cc2)CC1 [CBK267934] | 104.785
CC(C)(C)SCC(=O)c1ccc2c(c1)CCC(=O)N2 [CBK006168] | 55.9702
Nc1ncc(-c2ccsc2)c2cccnc12 [CBK067580] | 126.488
COc1ccc(-c2csc(CC(=O)O)n2)cc1 [CBK159469] | 94.9338
CC(=O)c1cccc(NC(=O)Cn2ncc(N3CCCC3)c(Cl)c2=O)c1 [CBK304395] | 127.068
CC1(C)CC(NC(=O)C23CCC(C)(c4nc5ccccc5nc42)C3(C)C)CC(C)(C)N1 (stereo not shown) [CBK266559] | 124.017
O=C(CC1SC(NC2CC3C=CC2C3)=NC1=O)NCc1ccccc1 (stereo not shown) [CBK049940] | 77.6409
CCOC(=O)C(CO)NC(=O)c1cncc(Br)c1 (stereo not shown) [CBK263926] | 110.546
O=C1NC/C=C/CC2(CCN(C(=O)c3cccnn3)CC2)C(=O)NCCOc2ccccc21 [CBK292095] | 78.3039
O=S(=O)(Nc1cccc(Br)c1)c1ccc(OC(F)(F)F)cc1 [CBK044369] | 104.772
Cc1ncccc1COC(=O)N1CCCC(F)C1 (stereo not shown) [CBK200155] | 114.016
C[C@@H]1CC(=O)CCC1NC(=O)c1ccccc1 (stereo partly shown) [CBK017832] | 50.441
COC(=O)CN1C(=O)S/C(=C/c2cc(C)n(-c3ccc(S(N)(=O)=O)cc3)c2C)C1=O [CBK265249] | 89.2545
O=C1CC(C(=O)O)CN(c2cccs2)C1 (stereo not shown) [CBK021796] | 74.1315
CCOC(=O)c1sc(NCCOc2cccc(C)c2)nc1C [CBK265574] | 88.4643
O=C(NCCCN1CCOCC1)c1cc(Cl)ccc1[N+](=O)[O-] [CBK265470] | 94.9863
COC(=O)c1ccc(NC(=O)N2CCCC2c2nc(-c3ccccc3)c3ccccn23)cc1 (stereo not shown) [CBK046725] | 123.319
